Assay results as given in PubChem BioAssay AID1745845 (National Center for Advancing Translational Sciences (NCATS), 2022).
Several values for one entry are separate records, joined by “and”; a condition that tells them apart may be missing. Identical values can stand only once. Screen size: about 360,000 compounds; about 2,600 (0.72%) were called active. The inconclusive results got no clear call from the source; some entries with a clear call stand among them for comparison. Calls come from the whole dose curve; as a rule, active = well fitted inhibition curve with a large enough effect; inconclusive = small, poorly fitted or top-dose-only effect; inactive = no such curve, though single readings can be large or run the other way. Potencies of inconclusive entries are doubtful fits and often do not repeat.

assay: Primary qHTS for Inhibitors of ATXN expression; details: HEK-293 ATXN2-luciferase reporter, luminescence, 24 h; activity change, negative = inhibition: at 57 µM (top of the series); note: nearly all actives have a fitted effect of over 55% in size
Method in brief: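 qHTS (up to 57 uM final) was run with 24 h compound exposure of reporter cells at 37 °C. Each well was multiplexed: SteadyGlo luminescence measured ATXN2-luciferase expression after a fluorogenic Gly-Phe-AFC viability readout (25 uM final).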
% is set by controls: 0 for no effect and ±100 for the full control effect; potency is the fitted concentration of half-maximal effect; tags give direction and shape of the fitted curve.

| Compound | activity change, negative = inhibition | Potency |
| --- | --- | --- |
| O=C1CC(c2ccc(Cl)cc2)N=C(NC(=O)c2ccccc2)N1 (stereo not drawn) | inactive: -9.53% |  |
| Cc1ccsc1/C=N/Nc1nc2ccccc2s1 | inactive: 130% |  |
| CCC(=C/c1sc2ccc3ccccc3c2[n+]1C)/C=C1\Sc2ccc3ccccc3c2N1C |  | inconclusive: 3.16 µM [inhibitor, partial curve] |
| CCOc1ccc(/C=C/c2[nH]c(=O)[nH]c(=O)c2[N+](=O)[O-])cc1 | inactive: 11.7% |  |
| CNC(=O)Nc1cccc(-c2cc(-c3c(Cl)cccc3Cl)no2)c1 | inactive: -10.3% |  |
| CCC/C=C/c1ccc(CN2C(C(C)C)C(=O)N(Cc3cn(CCOCOC)nn3)CCS2(=O)=O)cc1 (stereo not drawn) | inactive: 9.35% |  |
| COc1ccc(S(=O)(=O)N2CCN(C(=O)c3cc4c(s3)CCC4)CC2)cc1 |  | inconclusive: 39.8 µM [inhibitor, partial curve, poor fit] |
| COCCCNC(=O)CCc1c(C)nc2cc(-c3ccc(Cl)cc3)nn2c1C |  | inconclusive: 4.47 µM [inhibitor, partial curve, poor fit] |
| O=C(c1ccc(CS(=O)c2cccc(Cl)c2)o1)N1CCN(C2CCCCC2)CC1 (stereo not drawn) | inactive: 8.52% |  |
| COc1ccc(-c2nc(CN3CCN(C(=O)c4ccco4)CC3)c(C)o2)c(F)c1 | inactive: -6.71% |  |
| Cc1ccc(C(=O)Nc2nc(-c3cc(Cl)sc3Cl)cs2)cc1 |  | inconclusive: 11.2 µM [inhibitor, partial curve, poor fit] |
| CC(=O)O[C@@H]1[C@@H](O)[C@@H](O)[C@H](Oc2c(-c3ccc(O)cc3)oc3c(CC=C(C)C)c(O)cc(O)c3c2=O)O[C@H]1C |  | inconclusive: 39.8 µM [inhibitor, single point] |
| Cc1ccc(NCC(=O)N/N=C/c2cccc(Oc3ccccc3)c2)cc1 |  | inconclusive: 39.8 µM [inhibitor, single point] |
| Cc1nnc(SCC(=O)N2c3ccccc3C(C)(c3ccc(Cl)cc3)CC2(C)C)s1 (stereo not drawn) |  | inconclusive: 35.5 µM [inhibitor, single point] |
| COc1ccc(NC(=O)CN(C)C(=O)c2ccc(N3CCCCCC3)c([N+](=O)[O-])c2)cc1 | inactive: 8.07% |  |
| NS(=O)(=O)c1ccc(CCNC(=O)CN2CCN(Cc3cccc4ccccc34)CC2)cc1 |  | inconclusive: 15.8 µM [inhibitor, single point] |
| Cc1c(Br)cccc1NC(=O)C1(C)CCN1Cc1ccccc1OC(F)F (stereo not drawn) |  | inconclusive: 31.6 µM [inhibitor, single point] |
| Cc1ccc(NC(=S)N(CCCN2CCCC2)Cc2cccn2Cc2ccc(Cl)cc2)cc1Cl |  | inconclusive: 2.82 µM [inhibitor, full curve, poor fit] |
| Cc1cccc(N2CCN(C(=O)C3CCN(c4nnc(-n5cccc5)s4)CC3)CC2C)c1 (stereo not drawn) |  | inconclusive: 20 µM [inhibitor, partial curve] |
| CCN1CCC(N(Cc2ccc3c(c2)OCO3)C(=O)Nc2ccc(Br)c(C)c2)CC1 |  | active: 25.1 µM |
| CCOc1cc(CNCc2ccccc2)ccc1OCc1ccc(Cl)cc1 |  | inconclusive: 3.16 µM [inhibitor, single point] |

| Compound | activity change, negative = inhibition | Potency |
| --- | --- | --- |
| COCCCN(Cc1ccco1)C(=O)Cn1ncc2c([nH]c3ccccc32)c1=O |  | inconclusive: 5.01 µM [inhibitor, partial curve, poor fit] |
| Cc1ccc(NC(=O)c2ncn(CCCN3CCN(Cc4cccc5ccccc45)CC3)n2)cc1C |  | inconclusive: 39.8 µM [inhibitor, single point] |
| COc1cccc(-c2cc3nc(C)cc(N4CCN(C(=O)c5ccoc5)CC4)n3n2)c1 |  | inconclusive: 25.1 µM [inhibitor, partial curve, poor fit] |
| O=C1NC(Cc2c[nH]c3ccccc23)C(=O)N1Cc1cccc2ccccc12 (stereo not drawn) | inactive: -30.2% |  |
| COc1cc(Nc2ccccn2)cc(C(=O)Nc2cccc(C(F)(F)F)c2)c1 |  | inconclusive: 28.2 µM [inhibitor, partial curve, poor fit] and inconclusive: 35.5 µM [inhibitor, single point] |
| CN(Cc1ccccc1)C(NC(=O)c1ccccc1)C(Cl)(Cl)Cl (stereo not drawn) |  | inconclusive: 35.5 µM [inhibitor, single point] |
| O=C(N/N=C/c1ccc(Cl)c([N+](=O)[O-])c1)c1ccc2c(c1)OCCO2 |  | inconclusive: 25.1 µM [inhibitor, single point] |
| CCOC(=O)C1=C(O)/C(=C/c2ccc(CNC(=O)C(=O)Nc3ccc(C)cc3)o2)N=C1C |  | inconclusive: 39.8 µM [inhibitor, single point] |
| CCCCCCN1C[C@H](n2cc(COC(=O)c3ccccc3)nn2)[C@@H](O)C[C@@H]1c1ccc(Cl)cc1 |  | inconclusive: 28.2 µM [inhibitor, single point] |
| CCc1nc(SCC(=O)NCc2ccco2)c2c3c(sc2n1)CCCC3 |  | inconclusive: 39.8 µM [inhibitor, single point] |
| Cc1ccc2nc(SCc3ccc([N+](=O)[O-])cc3)[nH]c2c1 |  | inconclusive: 39.8 µM [inhibitor, single point] |
| COc1ccc2c(C)c(CCC(=O)NCCc3ccc(Cl)cc3)c(=O)oc2c1 |  | inconclusive: 22.4 µM [inhibitor, partial curve] |
| Cc1ccccc1N=C1SC(CC(=O)Nc2ccc3ccccc3c2)C(=O)N1Cc1ccccn1 (stereo not drawn) |  | inconclusive: 39.8 µM [inhibitor, single point] |
| COc1ccc(-c2oc3c(CC=C(C)C)c(OC4O[C@H](CO)[C@@H](O)[C@H](O)[C@@H]4O)cc(O)c3c(=O)c2OC2O[C@@H](C)[C@H](O)[C@@H](O)[C@@H]2O)cc1 (stereo partly drawn) |  | inconclusive: 30.6 µM [inhibitor, single point] |
| CCN(CC)CCn1c(SCC(=O)Nc2cccc(OC)c2)nc2c(sc3ccccc32)c1=O |  | inconclusive: 11.9 µM [inhibitor, partial curve, poor fit] |
| C=CCc1ccccc1OCC(O)CN1CCN(CCN2C(=O)c3cccc4cccc(c34)C2=O)CC1 (stereo not drawn) |  | active: 28.2 µM |
| COC(=O)C1=C(C)N(Cc2ccccc2)C(=NCC2CC2)N[C@H]1c1ccccc1 | inactive: -25.4% |  |
| O=C(NC1CCCCC1)C(c1ccc2ncccc2c1)N(Cc1ccccc1)C(=O)c1ccc2c(c1)OCCO2 (stereo not drawn) | inactive: -16.4% |  |
| C=C(C(=O)c1ccccc1)C(C)C(=C)C(=O)c1ccccc1 |  | active: 28.2 µM |
| CC(C)CC(NS(=O)(=O)c1ccc2c(c1)oc(=O)n2C)C(=O)NC1CCCc2ccccc21 (stereo not drawn) |  | inconclusive: 31.6 µM [inhibitor, partial curve, poor fit] |
| CC(=O)CSc1ccc(-c2nc3cc(C)c(C)cc3[nH]2)cn1 |  | inconclusive: 9.47 µM [inhibitor, partial curve, poor fit] |

| Compound | activity change, negative = inhibition | Potency |
| --- | --- | --- |
| COc1cc(CNCc2ccncc2)cc(Br)c1OCc1ccccc1F |  | inconclusive: 20 µM [inhibitor, partial curve] |
| O=C1c2ccccc2C(=O)C1c1ccc2ccccc2n1 |  | inconclusive: 11.2 µM [inhibitor, single point] |
| CC1CCN(C(=O)Cn2nnc(-c3ccc([N+](=O)[O-])cc3)n2)CC1 | inconclusive: -44.7% [inhibitor] |  |
| COc1ccc(CNC2CCCc3ccccc32)c(OC)c1 (stereo not drawn) | inactive: -10.5% |  |
| CCc1cc2c(=O)c(-c3cnn(-c4ccccc4)c3)c(C)oc2cc1OCC(=O)Nc1cccc(C)c1 |  | inconclusive: 1.12 µM [inhibitor, full curve, poor fit] |
| CC(=NNC(=S)N1CCN(c2ccccn2)CC1)c1nccs1 |  | inconclusive: 5.01 µM [inhibitor, full curve, poor fit] |
| S=C(N/N=C/c1ccc(Br)cc1)N1CCCCC1 | inactive: 72.7% |  |
| Cc1csc(C(=O)O)c1NC(=O)c1cccc([N+](=O)[O-])c1 |  | inconclusive: 0.0134 µM [inhibitor, full curve, poor fit] |
| O=C1CN(/N=C/c2ccc([N+](=O)[O-])o2)C(=O)N1 |  | inconclusive: 35.5 µM [inhibitor, partial curve] and inconclusive: 31.6 µM [inhibitor, single point] |
| COc1ccc(NS(=O)(=O)c2ccc(N/N=C(\C)c3ccncc3)c([N+](=O)[O-])c2)cc1 | inactive: -20.9% |  |
| O=C(N/N=C/c1ccc([N+](=O)[O-])s1)C(O)c1ccccc1 (stereo not drawn) |  | inconclusive: 20 µM [inhibitor, partial curve, poor fit] |
| O=C(NCCCn1ccnc1)c1cc2nc(-c3ccc(Br)cc3)cc(C(F)(F)F)n2n1 |  | inconclusive: 31.6 µM [inhibitor, single point] |
| Cc1cc(C(O)c2ncc(-c3ccc(Oc4ccccc4)cc3)[nH]2)ccc1F (stereo not drawn) |  | inconclusive: 39.8 µM [inhibitor, single point] |
| CC1CCC(CN2C(Nc3ccccc3)=NC[C@@H]2Cc2ccccc2)CC1 (stereo partly drawn) |  | active: 15.8 µM |
| Cc1ccc(-c2cc3nc(-c4ccccc4)cc(N4CCOCC4)n3n2)cc1 | inactive: -2.89% |  |
| COc1cc(SC)ccc1C(=O)N1CCc2ccccc21 | inactive: -8.02% |  |
| COc1ccc(NS(=O)(=O)c2ccc3oc(SC(C)C(N)=O)nc3c2)cc1 (stereo not drawn) | inactive: -16.7% |  |
| COc1cccc(-c2cc(C(=O)NCc3ccco3)c3ccccc3n2)c1 | inactive: 16.1% |  |
| COc1cccc(C#Cc2cnc3c(c2)C(=O)N([C@@H](C)CO)C[C@H](C)[C@H](CN(C)C(=O)C2CCC2)O3)c1 |  | inconclusive: 28.2 µM [inhibitor, single point] |
| CCCCC1CCC(C(=O)N(CCCC)c2c(N)n(CCCC)c(=O)[nH]c2=O)CC1 (stereo not drawn) |  | inconclusive: 14.1 µM [inhibitor, partial curve] |
| CC1Nc2ncnc(N3CCc4ccccc4C3)c2N(Cc2ccc(Br)cc2)C1=O (stereo not drawn) |  | inactive and inconclusive: 28.2 µM [inhibitor, partial curve] |
